Test results as given in the supplement of paper PMC3334620.
In all, about 33,000 sequences were measured (“E-score (-0.5 to 0.5)”: median about -0.017, highest 2% from about 0.3 on). This is one part of the list.

biological target: T1, Sut1 (UniProt P53032); test: PBM E-score (8-mer binding enrichment) (E-score (-0.5 to 0.5)); higher = stronger / more preferred TF binding; most listed sequences are background and not binding sites; details: protein concentration: 200 nM; construct: GST-full length
T1 sequence: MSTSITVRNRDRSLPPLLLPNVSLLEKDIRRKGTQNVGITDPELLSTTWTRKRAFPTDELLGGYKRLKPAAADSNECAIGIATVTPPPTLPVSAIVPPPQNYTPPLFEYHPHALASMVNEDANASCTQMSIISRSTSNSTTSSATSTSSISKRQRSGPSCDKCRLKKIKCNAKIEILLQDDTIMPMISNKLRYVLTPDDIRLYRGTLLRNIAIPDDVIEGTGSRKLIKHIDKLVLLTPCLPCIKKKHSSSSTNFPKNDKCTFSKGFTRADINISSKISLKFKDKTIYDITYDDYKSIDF
How it was run: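 Masliner-normalised scans of fluorescent anti-GST signal were the basis for scoring. That signal came from GST-tagged yeast transcription factors applied at about 100-200 nM to double-stranded universal all-10-mer Agilent arrays on fresh or once-stripped slides. Each ungapped eight-base word, pooled with its reverse complement, received an E-score from the Universal PBM Analysis Suite.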

Sequence	PBM E-score
CCTGATAG	-0.289
GTCTCGGA	0.316
AGGCTTGC	-0.253
AGAGCTCG	-0.0935
AGTCAAAA	0.0904
CTTCAGGA	-0.00396
ACACTTCA	0.0715
CCAGCATA	-0.0643
CTGGAAAA	0.0635
ACTGCAGA	0.0406
GGGTCCAC	-0.241
AACTCGGC	0.0606
CTAGTTAA	0.189
CTGCGGAC	0.165
ACCACAGC	-0.247
TGGAGCCA	-0.242
CAGGGGTC	-0.241
CCTCGTCG	-0.028
AGATAGGC	-0.0586
TACTAAGA	0.175
CGAGTCCG	0.426
AAGACTGG	0.0867
CGACAGAG	-0.267
AGAAGGTC	0.111
GGAGCAGA	-0.101

Sequence	PBM E-score
AGAAGTAT	0.16
CGCGTAGA	-0.107
ACCGAAGG	0.0104
GCCGAGGA	0.1
GAGGTGGA	-0.151
AGCACGGG	-0.0762
CAATAGAG	-0.123
ACGTGCCG	-0.176
CATACCTA	0.044
TCGTGACA	-0.128
CCCCCGGG	-0.174
CAAGTCGG	0.0146
ACTTTCGG	0.111
AACGATTC	0.135
CTACACAG	-0.108
GTAGGCAC	-0.102
ACCAATGC	-0.0193
CCGGAAAA	0.37
AGAATTGG	0.13
CGATATAA	0.233
CCATCCGG	0.0104
ACCCTTCG	-0.105
ACTTCAAA	0.0887
CAAAGTAA	0.124
AATTTGGA	-0.0756

Sequence	PBM E-score
ACAGATTG	-0.0506
GATAAAGA	0.114
AATTGTTG	0.0325
CACTCATA	0.16
CGATGCCA	-0.206
AAGGGCTC	-0.246
ACGCGCAA	0.0687
CAAACCGC	-0.0415
GCAGTCAC	-0.219
ACCACCTG	-0.0527
GTGACTCA	-0.253
ACACGACG	0.00477
ATTTGTCA	0.14
ATGTAAGA	0.221
ATGCACAT	0.0983
ACTTCCAA	-0.0599
ACCAGGGA	-0.251
CCGGGGAG	-0.0154
ACTAGAAT	0.167
AACTATGT	0.0733
AATCAAGT	0.212
ATAATGTC	0.128
AGTACAGG	-0.0282
GCGAAAGC	-0.0992
AAAGAAGG	0.0158

Sequence	PBM E-score
AGCATTTG	-0.112
CGGCTGGC	-0.0651
CCGTAACA	0.0386
ACTTCCCA	0.0315
CCTGTAAG	-0.0842
GCATCAAC	-0.112
AAAATTTA	0.233
CGAAAAAG	0.123
ACGCCCGA	-0.115
ACCGGCGG	-0.0437
CCTTTAAG	-0.00623
TATTGAGA	0.176
GTAAGTCA	0.0901
ACTGGCGG	0.0197
ACAGAGAA	-0.0551
CGGCCGAC	0.0666
CTAGGTGC	-0.148
GTGGAAGA	0.025
CGACCGGA	0.191
CCAGTAAA	0.0224
GACTCTAA	0.168
TCATCCCA	-0.123
AGTATTCA	0.15
TACATCCA	0.113
CGCGGTAC	-0.0865

Sequence	PBM E-score
TCATAAGA	0.0411
ACCGAGTG	-0.183
TAATTTCA	0.346
CCTGGGCC	-0.165
AGGCTGCG	-0.0636
ACCAAAAG	0.0306
GGGGCATA	-0.179
AATGCAGC	-0.182
CCGGATAG	0.252
CGGTTGTA	-0.108
TGATGCCA	-0.0517
ATTCAAAA	0.266
CGGCGAAC	0.11
CTTTGTGC	-0.123
TCCACTCA	-0.0676
AGTTATGA	0.119
ATCGAGTA	-0.0459
CCGCATTA	0.0646
ATACCCTC	-0.047
AAAATAAA	0.347
GTTGAGGA	-0.0729
GTGTGCGA	-0.19
CGGTCGAC	0.0158
ATGTCAGC	-0.0772
ACGGTTCT	-0.108

Sequence	PBM E-score
AGCCGGGA	-0.0702
CTACTTTC	0.068
ATGTTCTC	0.0619
AACGGACG	0.0275
CGCGGCGA	0.0609
AGAGTGAT	0.0184
GTTAATTA	0.232
CTTTAACA	0.202
CTATTAGA	-0.0266
CCAATAGG	-0.014
ATGGTCTA	-0.197
GAAACGTC	0.0294
TCTGAACA	0.0412
AAGTTACC	0.158
CTACGAAC	-0.0108
CCGGCCCA	-0.149
CCCGATAC	-0.0666
GTGCCAAA	-0.0416
AAATATCA	0.161
ATACAGAT	0.0934
CTCGCATA	-0.00352
ACTAGTCA	-0.0865
AAGGGTTG	0.0138
AAACTGTC	-0.13
AACTGCCT	0.0307

Sequence	PBM E-score
CTTGTTAA	0.175
CGTACGAA	0.0666
ATCCCCTC	-0.245
GAAGAAGA	0.0297
CTGCTGTA	-0.0764
GAGATGTA	0.112
CCTGCTTA	-0.254
AAACTGCT	-0.127
CGGGGTGC	0.00192
CTACGGTA	-0.0188
AGCGAAGA	0.00195
AAGCTCCG	0.455
TCGTCAAA	0.201
CCCGTTAC	0.0635
AAACACAG	0.154
GATTTTCC	0.104
AAACTGAC	-0.151
ACTAATAG	0.176
GTACTGTA	-0.0605
ATGGCGAC	-0.123
TCGGTCCA	-0.213
ACGAACTA	0.0258
CTCTTCAA	-0.0699
GACACCGA	0.0441
AGCAGCTA	0.0365

Sequence	PBM E-score
AACCCACC	-0.173
CACTCAGG	-0.21
AACATAAG	0.162
GATACTTA	-0.111
CCAATCGA	-0.119
ATGTTAAC	0.035
AAGCCATG	-0.0848
ATCTACTA	0.204
AGTCTCAG	-0.0583
ACTGTTTA	0.0544
GAGCACAC	-0.12
ATCTCGCG	0.0484
CTTCCAAG	-0.0318
GTTGCATA	-0.0388
TGGCAGAA	-0.0838
CCCTGTTC	-0.17
CGAATCTA	0.00256
GATCCCCA	-0.233
CAACTGGG	-0.244
AGCATGCC	-0.287
GGAAGTCA	-0.0083
AGTGCCTG	0.0223
CACGCTAA	-0.0612
CGCCCGCA	-0.112
AATGCTTA	-0.1

Sequence	PBM E-score
AAACGAGA	0.129
GGGGTCAA	-0.0104
CAGTTAAC	0.091
AGGCATGG	-0.233
ACCCATAA	0.05
GCTGCCCC	-0.363
AGATCGAG	0.0147
GCCCCCTA	-0.247
AATCTTGA	0.0302
ATTCGTTA	0.0408
ATTTTCCG	0.4
CGTAAATA	0.22
ATTGAGCG	0.082
CGGACTGC	0.377
AATGCATG	0.0341
ACTTTCTC	0.128
GCCCGGTA	-0.187
GGTTTCAA	0.191
GTCGATCA	-0.0696
